{"source": "patent US20230109208A1", "about": "(priority 2020, published 2023)", "test_system": "inflammation-induced lung injury resulting from Coronavirus (SARS-CoV-2) infection", "conditions": "paper examples", "data": [{"molecule": "Lenzilumab: Humaneered recombinant monoclonal antibody, derived from mouse antibody LMM102, targeting and neutralizing human GM-CSF (antibody, chains of the INN, looked up, V domains shown) VH: QVQLVQSGAEVKKPGASVKVSCKASGYSFTNYYIHWVRQAPGQRLEWMGWINAGNGNTKYSQKFQGRVTITRDTSASTAYMELSSLRSEDTAVYYCVRRQRFPYYFDYWGQGTLVTVSS VL: EIVLTQSPATLSVSPGERATLSCRASQSVGTNVAWYQQKPGQAPRVLIYSTSSRATGITDRFSGSGSGTDFTLTISRLEPEDFAVYYCQQFNKSPLTFGGGTKVEIK", "values": [{"measurement": "2 point improvement in the NIAID eight point ordinal hospital scale", "value": "faster"}, {"measurement": "number of hospital days", "value": "reduction"}, {"measurement": "permanent pulmonary function impairment", "value": "reduction"}, {"measurement": "time to recovery (6, 7, or 8 on the eight point ordinal hospital scale)", "value": "faster"}, {"measurement": "mortality rates", "setting": "regimen per example", "value": "reduction"}, {"measurement": "patients requiring ICU admission", "setting": "regimen per example", "value": "reduction"}, {"measurement": "patients requiring mechanical ventilation", "setting": "regimen per example", "value": "reduction"}]}]}
